Assay results from PMC11321632, “SIRT5‐Mediated Desuccinylation of RAB7A Protects Against Cadmium‐Induced Alzheimer's Disease‐Like Pathology by Restoring Autophagic Flux” (Advanced Science, 2024).

Biological target: T1, Sirtuin 5 (SIRT5), recombinant mouse protein (mouse, UniProt Q8K2C6 37-310)
T1 construct: Sirtuin 5 (SIRT5), mouse, recombinant; Made and measured by a contract laboratory (TopScience); source: 293F cells, purified
T1 sequence (looked up): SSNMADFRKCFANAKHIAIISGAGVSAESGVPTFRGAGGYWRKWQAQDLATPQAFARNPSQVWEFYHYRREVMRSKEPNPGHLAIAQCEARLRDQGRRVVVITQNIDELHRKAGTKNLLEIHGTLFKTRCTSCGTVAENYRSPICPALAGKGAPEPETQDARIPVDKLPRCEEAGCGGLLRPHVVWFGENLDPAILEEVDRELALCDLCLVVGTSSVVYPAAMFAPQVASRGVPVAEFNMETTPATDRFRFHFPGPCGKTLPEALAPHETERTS
Experiment: MST; Monolith NT.115 (NanoTemper); recombinant mouse proteins purified from 293F cells; which partner was labelled is not told
Conditions: both partners purified

Kd: ~1.43 nM
B1: Lysosomal Ras-associated protein 7a (RAB7A), recombinant mouse protein (natural protein)
chain: not shown
notes: Ras-associated protein 7a (RAB7A), mouse, recombinant; Made and measured by a contract laboratory (TopScience); source: 293F cells, purified
